The values that follow come from PMC12136788.

Some of the results follow.

T1: UNK ZnF1-3 (human, UniProt Q9C0B0 31-174)
T1 sequence: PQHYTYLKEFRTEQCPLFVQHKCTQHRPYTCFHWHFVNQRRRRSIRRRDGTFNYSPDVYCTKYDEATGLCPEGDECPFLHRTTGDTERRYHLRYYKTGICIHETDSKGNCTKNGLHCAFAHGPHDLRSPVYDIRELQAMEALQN

B1: chr13:100201707:100201708:-_ENSMUSG00000052727_ENSMUST00000064762|mus_mus|FALSE|FALSE (ssRNA)
RNA: GGGAGUUCUACAGUCCGACGAUCACUGACGUCUAUUUGUGUUGGAGAUACAUCUCCUCCCAAUUUCCUUUCAUCCAAAGCUAGAGCUGAUUGAGAACUCAUGGUUUCAACAUCACUGGUUUUCUUUUCUGGACCAAAGUCUUCCAACAGAGGAUUGAGCAUCA
B2: chr4:88365945:88365946:-_ENSMUSG00000070923_ENSMUST00000094993|mus_mus|FALSE|FALSE (ssRNA)
RNA: GGGAGUUCUACAGUCCGACGAUCACUUGUAUAGCCAUUUACUAAACAAUAUCAAGCCAAACCAAAAAAAAAAAAGGGUCUAAGUUACCUUUUUGUCUAUUAACUGUAGCAAUAAGGAGAAACAAUACAAGGGGAUGAACAAGACAACAGAGGAUUGAGCAUCA
B3: chr10:90611280:90611281:-_ENSMUSG00000019961_ENSMUST00000072239|mus_mus|motif|central (ssRNA)
RNA: GGGAGUUCUACAGUCCGACGAUCGAUUUAAAAGCAAGUCAGUUAUACUUUUAAAUCAAAUUACAUCGGGAAUUAUAUGCCGGAAACAAACAAAAAUAACACCCAGACUCAACCCAAAACAAAAAACCCAAAAAUCCCUGGCUGCAACAGAGGAUUGAGCAUCA
B4: chr6:149979360:149979361:-_ENSG00000131023_ENST00000543571|hu_mus|motif|central (ssRNA)
RNA: GGGAGUUCUACAGUCCGACGAUCAGGGAAUGAUUGGGAAAAUACAAAUAGAUUCAUUAAAAACAGACUGAUUAUUUGUUCGGGUACAUUCAGAAAUAUCCAAAAACAGUUGUUAUAUUGCAAAGCUGUAAUUUUUCCUAGCAACAACAGAGGAUUGAGCAUCA
B5: chr4:133834700:133834701:-_ENSMUSG00000050890_ENSMUST00000105876|mus_mus|FALSE|FALSE (ssRNA)
RNA: GGGAGUUCUACAGUCCGACGAUCGUAGAAGUCCGUCCCGCAUGCCGUGGAAAGGAAACACUUGUUUACACUGACAGGUUCUUCUGGGUUCUGCCCAGAUGCUGAGCAAACUUUACUUAGGCCGAAAUCAGCCACUUUGAGUGUCAACAGAGGAUUGAGCAUCA
B6: chr1:6260860:6260861:+_ENSMUSG00000025907_ENSMUST00000027040|perfect_dup|motif|central (ssRNA)
RNA: GGGAGUUCUACAGUCCGACGAUCUGGUUUGAGAUCCAGGGCAGGAAGAGACUCUGAGUGCAGAAAAUAUAAAGUAGGACGGACAGUAAACAAUACAUAAUUGUCGUGCCGCUCAUCUAGGAUGAUGAGAACCAAAUCUCCCACCAACAGAGGAUUGAGCAUCA
B7: chr7:156759685:156759686:+_ENSG00000146909_ENST00000275820|hu_mus|FALSE|FALSE (ssRNA)
RNA: GGGAGUUCUACAGUCCGACGAUCCAGCAGAUGAACCAGAUUUGAGAACUUAGUGUCUGGCAAAUUUUCUAAGUCCCGAAAUUUGUCCCAUAUGCUGAACUGGAAAGUCAUCUGGAAUCUCCUUUCAUAGUCACAGAAUUUGCUCAACAGAGGAUUGAGCAUCA
B8: chr4:57314706:57314707:+_ENSG00000128050_ENST00000264221|hu_mus|hu_hu_hu_mus_True|38_88 (ssRNA)
RNA: GGGAGUUCUACAGUCCGACGAUCCAGAAUUUCAAAAAUAGCUUGUGUAGCAUGACUCAUGAUGUCCACUUCAGUCUGCCCUAUAACAAGGCCAGCAAAGCAAAAUUUUGCAGCAAUGAGUUGCUCCUCAGACCACUGUGGAUCCAACAGAGGAUUGAGCAUCA
B9: chr11:60965468:60965469:-_ENSMUSG00000042506_ENSMUST00000041683|mus_mus|motif|central (ssRNA)
RNA: GGGAGUUCUACAGUCCGACGAUCCUAACCACAGUACAAUCAUUGGAUUUUUUUUCCCUCACGAUUUUUUAUUUCAAAGCGGUAAUAAAUGAAACAAACCACUUGUCAAAAAGAACAAUGAUUUUACACAAGGAAAAGCAUACACAACAGAGGAUUGAGCAUCA
B10: chr2:153237265:153237266:-_ENSMUSG00000061411_ENSMUST00000109784|mus_mus|mus_mus_mus_hu_False|18_98 (ssRNA)
RNA: GGGAGUUCUACAGUCCGACGAUCAAAAAAAAAAAAAGAAAAGUGUCCUUGUGCCCAAAGUCUCAGGUGCUUGGAGUGUGGCUAGAAACAGCUCUUUUGGAUCCCACCUCUUUCAAAAAACAGUGUAACCAACUGGUGAGGCAGCAACAGAGGAUUGAGCAUCA
B11: 142074278_142075813_3790_CDS_ENSG00000114127_ENST00000264951|human|control|control (ssRNA)
RNA: GGGAGUUCUACAGUCCGACGAUCUCCAGAUCCCUGUAAGGACUGCCAAAUGUUGCAGAAUUCAUCAUCAUCUUUAGUAGGUACUUGAGUAGGAACAAAAAGUGAUUGAGGGGAAUGGUUGAGGGCUCCCAAAUGCCCAGAGGACAACAGAGGAUUGAGCAUCA
B12: chr6:38652254:38652255:-_ENSG00000124767_ENST00000373365|hu_hu|hu_hu_hu_mus_False|98_98 (ssRNA)
RNA: GGGAGUUCUACAGUCCGACGAUCCGAGAACUUCAUAAUGGGAAAAUCAAGCUUCUGCAGGAGGGUCAGUCCAAGAACCCUCGUAUAAAAAUCCAGGGACUUCUUAGGAUCCUUAAUUCUUAGCAUCGUUUGCUGCAGUAGAAACAACAGAGGAUUGAGCAUCA
B13: 57965999_57966431_1852_CDS_ENSG00000155980_ENST00000455537|human|control|control (ssRNA)
RNA: GGGAGUUCUACAGUCCGACGAUCUCGUUUUCGCUGGUGUCCACUGACCUCCUGUAGCCGCUGCAACUCAGACUCCAGGGACAGCAUGGUGGCCACCUUCUGAGACAGCUCAUCCACCAGAAGCUGGUUCUGCUGGCUCUUCUCCAACAGAGGAUUGAGCAUCA
B14: chr9:51896463:51896464:+_ENSMUSG00000032050_ENSMUST00000163153|mus_hu|FALSE|FALSE (ssRNA)
RNA: GGGAGUUCUACAGUCCGACGAUCUUUCAAUACUGUAUCAAACUGAUGUAGCUAUGGUAGUGCACAUAAUUCAAAAUGAGGAAAAUUAACAAAAAUCCAAUGAAAGUUCAGGUUUUUAUCUAUUAUGCAAUUGCUUUAAAGUGACAACAGAGGAUUGAGCAUCA
B15: chr4:134969704:134969705:-_ENSMUSG00000059713_ENSMUST00000030606|mus_mus|FALSE|FALSE (ssRNA)
RNA: GGGAGUUCUACAGUCCGACGAUCACUCCCAUGGUUUAAUUAUGCGUAAAGCUUUCCUCUGAAAACCAAAUCCUCCAGUCUAAAAAUAGUUUACAUAAAAAUAUAAAGCCCAGGCCCACCGUUAGUCUGGAAUAGAACUUGAUUCAACAGAGGAUUGAGCAUCA
B16: chr8:117878989:117878990:-_ENSG00000164754_ENST00000297338|hu_hu|hu_hu_hu_mus_True|68_108 (ssRNA)
RNA: GGGAGUUCUACAGUCCGACGAUCCCAGAGGCCCUCUUUUACUGAGGACAAAAUGUGCGUAGAACAUUGUUCUGGCUUGCUAUGAAAUAAGAAGAAACCUGGAUCUCGGCGGGGAGCCGGGAGGGGUGGGUGGCCCGGGGAGGGCAACAGAGGAUUGAGCAUCA
B17: chr2:202488911:202488912:-_ENSG00000155755_ENST00000286196|hu_mus|hu_hu_hu_mus_False|1_78 (ssRNA)
RNA: GGGAGUUCUACAGUCCGACGAUCAUUGAAACAUUUUUCAUAAUCUCCAGUAGCAUUCAGUAUUAUAGUAACAAAAGCUCAAUUGUAAAUACAUGUAUCUUAUAAAAAUACACUUAAAAACACGAGUGGGGAGCGCACAAAUACCAACAGAGGAUUGAGCAUCA
B18: 123907180_123907584_1593_CDS_ENSG00000119397_ENST00000373850|human|control|control (ssRNA)
RNA: GGGAGUUCUACAGUCCGACGAUCAAUUUCUAGGACCUGUGAGUUUGCUCCAGUACCUACACCUGUUUUCUCCAUCUCAAGUCGAAACUGCUCCCCCUUCUGCCUGAGGAGAUUCUGCAGGAGUUCGAUCUCAGCUUCUGCUCGCAACAGAGGAUUGAGCAUCA
B19: 46964300_46964420_1447_3pUTR_ENSMUSG00000025041_ENSMUST00000168536|mouse|control|control (ssRNA)
RNA: GGGAGUUCUACAGUCCGACGAUCACAGCAGGUUGAUGAACGAGGCCGCAUAGAGAUCUGCAUAGCGCAUCACUUGGCUGGCAAAGAGUGUCUGCCGGGAGCCGCUGCGGAACAGGCUUCCCAUCAUCCCAUAGCACAUGUCCACAACAGAGGAUUGAGCAUCA
B20: chrX:16864032:16864033:-_ENSG00000102054_ENST00000404022|hu_mus|FALSE|FALSE (ssRNA)
RNA: GGGAGUUCUACAGUCCGACGAUCCAUGAUGUUAUCUUCAGACACAGAGCAAAUGACCCAAGGUUCAUUGGGAUUCCAGCUGAAGUCAGAAAUCUUGGCAGUGUGCCCUCCAUGAAUAAACAGGAGCUCUGGAGGCCCAUCUUCCAACAGAGGAUUGAGCAUCA
B21: chr1:39494447:39494448:+_ENSG00000168653_ENST00000372967|hu_mus|hu_hu_hu_mus_False|68_68 (ssRNA)
RNA: GGGAGUUCUACAGUCCGACGAUCGCACCGAGCGGCGUUCUUAUAGGGCUGUUCUGCGCUUAGGAACGUCAACCAUCGGUCCAGGCUGAUGCCCAGCUUUUUCUGUAUGUCAAGGAAAGGCAUGGCUCUGCAGUGCCCUUGUCACAACAGAGGAUUGAGCAUCA
B22: chr9:110451384:110451385:+_ENSMUSG00000044791_ENSMUST00000153838|mus_mus|FALSE|FALSE (ssRNA)
RNA: GGGAGUUCUACAGUCCGACGAUCAGAAAUCUUAUUAAUUGUUCUUAAUUCACUACCUUUUGAACAAGGAGUCUGCAAACUAAACGAAUGAGAUUGUUUGUUUUCCUCAUUUAAUUCUGUACAACAGAAAGAAUUUUUAAAUUUCAACAGAGGAUUGAGCAUCA

This assay concerns the target T1, UNK ZnF1-3. The assay is described as follows: nsRBNS (natural sequence RNA bind-n-seq); RBNS binding buffer (assumed for nsRBNS): 25 mM Tris pH 7.5, 150 mM KCl, 3 mM MgCl2, 0.01% Triton X-100, 500 ug/ml BSA, 20 U/ml SUPERase-In, 4 C; UNK is unkempt and MSI1 is Musashi-1; names of the RNAs are library labels; protein concentration not given here; high values mean tight binding.
In turn, B1 showed a binding signal of 0.481 enrichment R. In the case of B2 it was 1.37 enrichment R; in that of B3, 1.83 enrichment R; in that of B4, 0.849 enrichment R. In the case of B5 it was 0.614 enrichment R; in that of B6, 2.34 enrichment R. In the case of B7 it was 0.88 enrichment R; in that of B8, 0.952 enrichment R. In turn, B9 registered a binding signal of 0.852 enrichment R. B10: the binding signal was determined as 2.94 enrichment R. Molecule B11 had a binding signal of 1.33 enrichment R. B12 yielded a binding signal of 1.03 enrichment R. In the case of B13 it was 0.456 enrichment R. In the case of B14 it was 1.21 enrichment R; in that of B15, 2 enrichment R; in that of B16, 1.6 enrichment R. Turning to B17, the binding signal came out at 1.77 enrichment R.

As for B18, the binding signal was determined as 0.874 enrichment R. In the case of B19 it was 1.13 enrichment R. In the case of B20 it was 1.01 enrichment R.

Consider B21, for which the binding signal was found to be 0.565 enrichment R.

Molecule B22 registered a binding signal of 1.36 enrichment R.
